# Experimental data: the supplement of paper PMC8728848
# The list shows a part of the results.
# B1: Langerin (Homo sapiens), Q9UJ71 (protein)
# chain: STLNAQIPELKSDLEKASALNTKIRALQGSLENMSKLLKRQNDILQVVSQGWKYFKGNFYYFSLIPKTWYSAEQFCVSRNSHLTSVTSESEQEFLYKTAGGLIYWIGLTKAGMEGDWSWVDDTPFNKVQSARFWIPGEPNDAGNNEHCGNIKAPSLQAWNDAPCDITFLFICKRPYVPSEP
# How the values were obtained:
# Assay in all cases: glycan array binding signal (z-score within array); higher = stronger binding
# Details in all cases: glycan notation: IUPAC condensed, linker removed; mutation: N288D, K313I
# [1] = target: GlcNAc(b1-3)Gal(b1-3)GalNAc
# Procedure, shortened: (§1)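 Glycan array binding is given as a within-array Z-score, which can be read as non-binding when negative. The arrays, 3228 of them, came from the Consortium for Functional Glycomics database and were retained only where the protein sequence was available. Z-scores were averaged across arrays of the same protein sequence at different concentrations or buffers and across linkers.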
# GlcNAc(b1-3)Gal(b1-4)Glc = target: GlcNAc(b1-3)Gal(b1-4)Glc
# Procedure, shortened: as §1
# [2] = target: GlcNAc(b1-3)Gal(b1-4)GlcNAc
# Procedure, shortened: as §1
# [3] = target: GlcNAc(b1-3)Gal(b1-4)GlcNAc(b1-2)Man(a1-3)[GlcNAc(b1-3)Gal(b1-4)GlcNAc(b1-2)Man(a1-6)]Man(b1-4)GlcNAc(b1-4)GlcNAc
# Procedure, shortened: as §1
# [4] = target: GlcNAc(b1-3)Gal(b1-4)GlcNAc(b1-2)Man(a1-3)[GlcNAc(b1-3)Gal(b1-4)GlcNAc(b1-2)Man(a1-6)]Man(b1-4)GlcNAc(b1-4)[Fuc(a1-6)]GlcNAc
# Procedure, shortened: as §1
# [5] = target: GlcNAc(b1-3)Gal(b1-4)GlcNAc(b1-2)[GlcNAc(b1-3)Gal(b1-4)GlcNAc(b1-6)]Man(a1-6)[GlcNAc(b1-3)Gal(b1-4)GlcNAc(b1-2)Man(a1-3)]Man(b1-4)GlcNAc(b1-4)GlcNAc
# Procedure, shortened: as §1
# [6] = target: GlcNAc(b1-3)Gal(b1-4)GlcNAc(b1-3)Gal(b1-4)GlcNAc
# Procedure, shortened: as §1
# [7] = target: GlcNAc(b1-3)Gal(b1-4)GlcNAc(b1-3)Gal(b1-4)GlcNAc(b1-2)Man(a1-3)[GlcNAc(b1-3)Gal(b1-4)GlcNAc(b1-3)Gal(b1-4)GlcNAc(b1-2)Man(a1-6)]Man(b1-4)GlcNAc(b1-4)GlcNAc
# Procedure, shortened: as §1
# [8] = target: GlcNAc(b1-3)Gal(b1-4)GlcNAc(b1-3)Gal(b1-4)GlcNAc(b1-2)Man(a1-3)[GlcNAc(b1-3)Gal(b1-4)GlcNAc(b1-3)Gal(b1-4)GlcNAc(b1-2)Man(a1-6)]Man(b1-4)GlcNAc(b1-4)[Fuc(a1-6)]GlcNAc
# Procedure, shortened: as §1
# [9] = target: GlcNAc(b1-3)Gal(b1-4)GlcNAc(b1-3)Gal(b1-4)GlcNAc(b1-2)[GlcNAc(b1-3)Gal(b1-4)GlcNAc(b1-3)Gal(b1-4)GlcNAc(b1-6)]Man(a1-6)[GlcNAc(b1-3)Gal(b1-4)GlcNAc(b1-3)Gal(b1-4)GlcNAc(b1-2)Man(a1-3)]Man(b1-4)GlcNAc(b1-4)[Fuc(a1-6)]GlcNAc
# Procedure, shortened: as §1
# [10] = target: GlcNAc(b1-3)Gal(b1-4)GlcNAc(b1-3)Gal(b1-4)GlcNAc(b1-3)Gal(b1-4)GlcNAc(b1-2)Man(a1-3)[GlcNAc(b1-3)Gal(b1-4)GlcNAc(b1-3)Gal(b1-4)GlcNAc(b1-3)Gal(b1-4)GlcNAc(b1-2)Man(a1-6)]Man(b1-4)GlcNAc(b1-4)GlcNAc
# Procedure, shortened: as §1
# [11] = target: GlcNAc(b1-3)Gal(b1-4)GlcNAc(b1-3)Gal(b1-4)GlcNAc(b1-3)Gal(b1-4)GlcNAc(b1-2)Man(a1-3)[GlcNAc(b1-3)Gal(b1-4)GlcNAc(b1-3)Gal(b1-4)GlcNAc(b1-3)Gal(b1-4)GlcNAc(b1-2)Man(a1-6)]Man(b1-4)GlcNAc(b1-4)[Fuc(a1-6)]GlcNAc
# Procedure, shortened: as §1
# [12] = target: GlcNAc(b1-3)Gal(b1-4)GlcNAc(b1-3)Gal(b1-4)GlcNAc(b1-3)Gal(b1-4)GlcNAc(b1-2)[GlcNAc(b1-3)Gal(b1-4)GlcNAc(b1-3)Gal(b1-4)GlcNAc(b1-3)Gal(b1-4)GlcNAc(b1-6)]Man(a1-6)[GlcNAc(b1-3)Gal(b1-4)GlcNAc(b1-3)Gal(b1-4)GlcNAc(b1-3)Gal(b1-4)GlcNAc(b1-2)Man(a1-3)]Man(b1-4)GlcNAc(b1-4)[Fuc(a1-6)]GlcNAc
# Procedure, shortened: as §1
# [13] = target: GlcNAc(b1-3)Gal(b1-4)GlcNAc(b1-3)Gal(b1-4)GlcNAc(b1-3)Gal(b1-4)GlcNAc(b1-3)Gal(b1-4)GlcNAc(b1-2)Man(a1-3)[GlcNAc(b1-3)Gal(b1-4)GlcNAc(b1-3)Gal(b1-4)GlcNAc(b1-3)Gal(b1-4)GlcNAc(b1-3)Gal(b1-4)GlcNAc(b1-2)Man(a1-6)]Man(b1-4)GlcNAc(b1-4)GlcNAc
# Procedure, shortened: as §1
# [14] = target: GlcNAc(b1-3)Gal(b1-4)GlcNAc(b1-3)Gal(b1-4)GlcNAc(b1-3)Gal(b1-4)GlcNAc(b1-3)Gal(b1-4)GlcNAc(b1-2)Man(a1-3)[GlcNAc(b1-3)Gal(b1-4)GlcNAc(b1-3)Gal(b1-4)GlcNAc(b1-3)Gal(b1-4)GlcNAc(b1-3)Gal(b1-4)GlcNAc(b1-2)Man(a1-6)]Man(b1-4)GlcNAc(b1-4)[Fuc(a1-6)]GlcNAc
# Procedure, shortened: as §1
# [15] = target: GlcNAc(b1-3)Gal(b1-4)GlcNAc(b1-3)Gal(b1-4)GlcNAc(b1-3)Gal(b1-4)GlcNAc(b1-3)Gal(b1-4)GlcNAc(b1-2)[GlcNAc(b1-3)Gal(b1-4)GlcNAc(b1-3)Gal(b1-4)GlcNAc(b1-3)Gal(b1-4)GlcNAc(b1-3)Gal(b1-4)GlcNAc(b1-6)]Man(a1-6)[GlcNAc(b1-3)Gal(b1-4)GlcNAc(b1-3)Gal(b1-4)GlcNAc(b1-3)Gal(b1-4)GlcNAc(b1-3)Gal(b1-4)GlcNAc(b1-2)Man(a1-3)]Man(b1-4)GlcNAc(b1-4)[Fuc(a1-6)]GlcNAc
# Procedure, shortened: as §1
# [16] = target: GlcNAc(b1-3)Gal(b1-4)GlcNAc(b1-3)Gal(b1-4)GlcNAc(b1-3)GalNAc
# Procedure, shortened: as §1
# [17] = target: GlcNAc(b1-3)Gal(b1-4)GlcNAc(b1-3)GalNAc
# Procedure, shortened: as §1
# [18] = target: GlcNAc(b1-3)Gal(b1-4)GlcNAc(b1-3)[GlcNAc(b1-3)Gal(b1-4)GlcNAc(b1-3)]GalNAc
# Procedure, shortened: as §1
# [19] = target: GlcNAc(b1-3)Gal(b1-4)GlcNAc(b1-6)[Gal(b1-3)]GalNAc
# Procedure, shortened: as §1
# [20] = target: GlcNAc(b1-3)Gal(b1-4)GlcNAc(b1-6)[GlcNAc(b1-3)Gal(b1-3)]GalNAc
# Procedure, shortened: as §1
# [21] = target: GlcNAc(b1-3)Gal(b1-4)GlcNAc(b1-6)[GlcNAc(b1-3)]Gal(b1-4)GlcNAc
# Procedure, shortened: as §1
# GlcNAc(b1-3)GalNAc = target: GlcNAc(b1-3)GalNAc
# Procedure, shortened: as §1
# GlcNAc(b1-3)Man = target: GlcNAc(b1-3)Man
# Procedure, shortened: as §1
# [22] = target: GlcNAc(b1-3)[GlcNAc(b1-4)][GlcNAc(b1-6)]GlcNAc
# Procedure, shortened: as §1
# [23] = target: GlcNAc(b1-3)[GlcNAc(b1-6)]Gal(b1-4)GlcNAc
# Procedure, shortened: as §1
# [24] = target: GlcNAc(b1-3)[GlcNAc(b1-6)]GalNAc
# Procedure, shortened: as §1
# [25] = target: GlcNAc(b1-4)Gal(b1-4)GlcNAc
# Procedure, shortened: as §1
# GlcNAc(b1-4)GlcNAc = target: GlcNAc(b1-4)GlcNAc
# Procedure, shortened: as §1
# [26] = target: GlcNAc(b1-4)GlcNAc(b1-4)GlcNAc
# Procedure, shortened: as §1
# [27] = target: GlcNAc(b1-4)GlcNAc(b1-4)GlcNAc(b1-4)GlcNAc(b1-4)GlcNAc
# Procedure, shortened: as §1
# [28] = target: GlcNAc(b1-4)GlcNAc(b1-4)GlcNAc(b1-4)GlcNAc(b1-4)GlcNAc(b1-4)GlcNAc
# Procedure, shortened: as §1
# [29] = target: GlcNAc(b1-4)[GlcNAc(b1-6)]GalNAc
# Procedure, shortened: as §1
# [30] = target: GlcNAc(b1-6)Gal(b1-4)GlcNAc
# Procedure, shortened: as §1
# GlcNAc(b1-6)GalNAc = target: GlcNAc(b1-6)GalNAc
# Procedure, shortened: as §1
# [31] = target: GlcNAc6S(b1-3)Gal(b1-4)GlcNAc
# Procedure, shortened: as §1
# Kdn(a2-3)Gal(b1-3)GalNAc = target: Kdn(a2-3)Gal(b1-3)GalNAc
# Procedure, shortened: as §1
# Kdn(a2-3)Gal(b1-3)GlcNAc = target: Kdn(a2-3)Gal(b1-3)GlcNAc
# Procedure, shortened: as §1
# Kdn(a2-3)Gal(b1-4)Glc = target: Kdn(a2-3)Gal(b1-4)Glc
# Procedure, shortened: as §1
# Kdn(a2-3)Gal(b1-4)GlcNAc = target: Kdn(a2-3)Gal(b1-4)GlcNAc
# Procedure, shortened: as §1
# [32] = target: Kdn(a2-3)Gal(b1-4)[Fuc(a1-3)]GlcNAc
# Procedure, shortened: as §1
# Kdn(a2-6)Gal(b1-4)GlcNAc = target: Kdn(a2-6)Gal(b1-4)GlcNAc
# Procedure, shortened: as §1
# [33] = target: Man(a1-2)Man(a1-2)Man(a1-3)Man
# Procedure, shortened: as §1
# [34] = target: Man(a1-2)Man(a1-2)Man(a1-6)[Man(a1-3)]Man
# Procedure, shortened: as §1
# Man(a1-2)Man(a1-3)Man = target: Man(a1-2)Man(a1-3)Man
# Procedure, shortened: as §1
binder,measurement,setting,value
B1,glycan array binding signal (z-score),[1],-0.036
same,glycan array binding signal (z-score),GlcNAc(b1-3)Gal(b1-4)Glc,-0.073
same,glycan array binding signal (z-score),[2],1.72
same,glycan array binding signal (z-score),[3],-0.225
same,glycan array binding signal (z-score),[4],0.063
same,glycan array binding signal (z-score),[5],2.14
same,glycan array binding signal (z-score),[6],-0.116
same,glycan array binding signal (z-score),[7],0.764
same,glycan array binding signal (z-score),[8],0.439
same,glycan array binding signal (z-score),[9],16.7
same,glycan array binding signal (z-score),[10],0.059
same,glycan array binding signal (z-score),[11],0.409
same,glycan array binding signal (z-score),[12],0.284
same,glycan array binding signal (z-score),[13],-0.051
same,glycan array binding signal (z-score),[14],2.34
same,glycan array binding signal (z-score),[15],0.125
same,glycan array binding signal (z-score),[16],-0.084
same,glycan array binding signal (z-score),[17],-0.208
same,glycan array binding signal (z-score),[18],-0.21
same,glycan array binding signal (z-score),[19],-0.32
same,glycan array binding signal (z-score),[20],-0.234
same,glycan array binding signal (z-score),[21],5.4
same,glycan array binding signal (z-score),GlcNAc(b1-3)GalNAc,-0.205
same,glycan array binding signal (z-score),GlcNAc(b1-3)Man,-0.209
same,glycan array binding signal (z-score),[22],-0.031
same,glycan array binding signal (z-score),[23],4.87
same,glycan array binding signal (z-score),[24],0.39
same,glycan array binding signal (z-score),[25],-0.084
same,glycan array binding signal (z-score),GlcNAc(b1-4)GlcNAc,-0.267
same,glycan array binding signal (z-score),[26],-0.182
same,glycan array binding signal (z-score),[27],-0.255
same,glycan array binding signal (z-score),[28],-0.123
same,glycan array binding signal (z-score),[29],-0.213
same,glycan array binding signal (z-score),[30],-0.268
same,glycan array binding signal (z-score),GlcNAc(b1-6)GalNAc,-0.196
same,glycan array binding signal (z-score),[31],0.028
same,glycan array binding signal (z-score),Kdn(a2-3)Gal(b1-3)GalNAc,-0.232
same,glycan array binding signal (z-score),Kdn(a2-3)Gal(b1-3)GlcNAc,-0.115
same,glycan array binding signal (z-score),Kdn(a2-3)Gal(b1-4)Glc,-0.212
same,glycan array binding signal (z-score),Kdn(a2-3)Gal(b1-4)GlcNAc,-0.223
same,glycan array binding signal (z-score),[32],0.018
same,glycan array binding signal (z-score),Kdn(a2-6)Gal(b1-4)GlcNAc,-0.196
same,glycan array binding signal (z-score),[33],-0.036
same,glycan array binding signal (z-score),[34],1.19
same,glycan array binding signal (z-score),Man(a1-2)Man(a1-3)Man,-0.15
